Source: PubChem BioAssay AID1745853 (National Center for Advancing Translational Sciences (NCATS), 2022)
The list shows a part of the results. The main result of the screen is listed elsewhere. These columns were measured beside it and carry no call.

Key:
Experiment in all cases: Primary Screen for Target Class Profiling of Small Molecule Inhibitors of Methyltransferases
[1] = target: Glycine N-methyltransferase (Homo sapiens) (UniProt Q14749); conditions: purified enzyme, MTase-Glo SAH luminescence; measured here: GNMT inhibition; at 40 µM; stronger effect = lower value
Method in brief: (§1)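 Each enzyme was assayed with SAM and its substrate. SAH formation detected by MTase-Glo luminescence; single-point 40 uM screen[…].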

[2] = target: Guanidinoacetate N-methyltransferase (Homo sapiens) (UniProt Q14353); conditions: purified enzyme, MTase-Glo SAH luminescence; measured here: GAMT inhibition; at 40 µM; stronger effect = lower value
Method in brief: as §1

[3] = target: Histamine N-methyltransferase (Homo sapiens) (UniProt P50135); conditions: purified enzyme, MTase-Glo SAH luminescence; measured here: HNMT inhibition; at 40 µM; stronger effect = lower value
Method in brief: as §1

[4] = target: Nicotinamide N-methyltransferase (Homo sapiens) (UniProt P40261); conditions: purified enzyme, MTase-Glo SAH luminescence; measured here: NNMT inhibition; at 40 µM; stronger effect = lower value
Method in brief: as §1

[5] = target: Phenylethanolamine N-methyltransferase (Homo sapiens) (UniProt P11086); conditions: purified enzyme, MTase-Glo SAH luminescence; measured here: PNMT inhibition; at 40 µM; stronger effect = lower value
Method in brief: as §1
% is set by controls: 0 for no effect and ±100 for the full control effect.

Structure (SMILES) | activity change, negative = inhibition [1] [%] | activity change, negative = inhibition [2] [%] | activity change, negative = inhibition [3] [%] | activity change, negative = inhibition [4] [%] | activity change, negative = inhibition [5] [%]
CC1(C(=O)NCc2ccccc2)Cn2c(cc3ccccc32)C(=O)N1Cc1ccc2c(c1)OCO2 (stereo not given) | -6 | -1.17 | 0.249 | -16.4 | -2.77
COc1cccc(N2C(=O)NC(=NC3CCCC3)C23CCN(Cc2ccccc2)C3)c1 (stereo not given) | -12.2 | 0.163 | -1.29 | -10.9 | -0.783
N#C[C@@H]1C[C@@H]2C[C@@H]2N1C(=O)[C@@H](N)C12CC3CC(CC(O)(C3)C1)C2 | -2.57 | -11.6 | 5.07 | -16.4 | -1.63
CC(C)(O)C1OC1C1=CC(=O)C2(C)OC2C1O (stereo not given) | 2.79 | 4.58 | 9.98 | -6.29 | 4.85
COc1ccccc1CNC(=O)C1(C)Cn2nc(-c3ccccc3)cc2C(=O)N1CCc1ccc(Cl)cc1 (stereo not given) | -7.53 | -0.582 | -6.67 | -8.79 | -4.78
CCCn1c(=O)c2ccc(C(=O)NC(C)CC)cc2n2c(SCC(=O)c3ccccc3)nnc12 (stereo not given) | 2 | 4.91 | 5.51 | -6.55 | 3.64
CCc1cc2c(cc3n2CC(C)(C(=O)NC2CCCCC2)N(c2ccc(C)cc2C)C3=O)s1 (stereo not given) | 2 | 0 | 9.63 | 12.5 | 3.24
CCOc1ccc(-c2cc3n(n2)CC(C)(C(=O)NC2CCCCC2)N(C2CCCCC2)C3=O)cc1 (stereo not given) | -3.99 | 4.43 | 2.13 | -1.67 | -1.72
Cc1ccc(O)cc1Nc1ccnc(Nc2cccc(C(N)=O)c2)n1 | -16.8 | -25.3 | -18.7 | -38.7 | -11.8
Cc1cccc(C#Cc2cc(F)cc(C#N)c2)n1 | -12.8 | -7.81 | -3.27 | -21.7 | -5.3
O=P(O)(O)C(Cl)(Cl)P(=O)(O)O | -7.33 | 6.59 | -0.99 | -2.78 | 7.07
C[C@@H]1O[C@@H](O[C@H]2[C@H](OC(=O)[C@]34CCC(C)(C)C[C@H]3C3=CCC5[C@@]6(C)CC[C@H](O[C@@H]7O[C@H](CO[C@@H]8OC[C@H](O)[C@H](O)[C@H]8O)[C@@H](O)[C@H](O)[C@H]7O)C(C)(C)C6CC[C@@]5(C)[C@]3(C)C[C@H]4O)OC[C@@H](O)[C@@H]2O)[C@H](O)[C@H](O)[C@H]1O[C@@H]1OC[C@H](O)[C@H](O[C@@H]2OC[C@@H](O)[C@H](O)[C@H]2O)[C@H]1O (stereo not given in full) | 0 | 12.9 | 2.5 | 3.73 | 8.91
COc1cc(NC(=O)CSc2nnc3n(CCC(C)C)c(=O)c4ccccc4n23)cc(OC)c1 | -2.06 | 0.088 | 4.11 | -1.05 | 0.921
O=C(NCc1ccc2c(c1)OCO2)c1ccc2c(=O)[nH]c3c(C(=O)NCC4CCCO4)sc(=S)n3c2c1 (stereo not given) | -4.88 | 0.08 | 12.1 | -9.99 | -11.1
OC[C@H]1O[C@@H](OC(CCCCc2ccc(O)cc2)CCc2ccc(O)cc2)[C@H](O[C@@H]2OC[C@](O)(CO)[C@H]2O)[C@@H](O)[C@@H]1O (stereo not given in full) | 0 | 7.94 | 5.16 | -6.1 | 5.6
CCC(C(=O)N1CCC2(CCC(=O)N(Cc3ccccn3)C2)CC1)n1cccn1 (stereo not given) | -2.54 | -4.59 | -1.64 | -6.18 | -19.4
COc1ccccc1CN1C(=O)c2cc3occc3n2CC1(C)C(=O)NC1CCCCC1 (stereo not given) | 2.93 | 4.35 | 6.95 | 10.9 | 4.4
C=C(C)C1Cc2cc(C(=O)OC3OC(CO)C(O)C(O)C3O)ccc2O1 (stereo not given) | 0 | -4.09 | 6.73 | -18.5 | -12.8
Cc1ccc(-c2cc(O)c3c(c2)CNCCO3)cc1 | -6.33 | -4.78 | -6.19 | -7.4 | -2.11
CC1(C(=O)NC2CCCCC2)Cn2c(cc3ccccc32)C(=O)N1Cc1ccc(F)cc1 (stereo not given) | 5.55 | 5.58 | -0.735 | 4.22 | -1.12

Structure (SMILES) | activity change, negative = inhibition [1] [%] | activity change, negative = inhibition [2] [%] | activity change, negative = inhibition [3] [%] | activity change, negative = inhibition [4] [%] | activity change, negative = inhibition [5] [%]
O=C(CCc1nc2ccccc2s1)N1CCC(c2noc(C3CC3)n2)C1 (stereo not given) | -5.06 | -2.61 | -1.86 | -13.5 | -4.33
COCC(=O)NC1CCC12CCN(Cc1ccc(C)o1)CC2 (stereo not given) | -5.06 | -4.85 | -0.046 | -4.91 | -2.98
CC1(O)CC(O)C2(O)C=COC(O[C@@H]3O[C@H](CO)[C@@H](O)[C@H](O)[C@H]3O)C12 (stereo not given in full) | -4.72 | 1.74 | 3.43 | -9.55 | -16.1
C/C=C/C(=O)OC1/C=C/C(O)C(OC(C)=O)CCC(=O)OC1C (stereo not given) | 3.88 | 6.96 | 10.1 | -7.12 | 2.21
CCc1noc(-c2cn(C3CCCN(C(=O)c4ccc(C(C)(C)C)cc4)C3)nn2)n1 (stereo not given) | -6.61 | -5.89 | -2.88 | -18 | -2.81
COc1ccccc1OCc1cc(C(=O)N2CCCCCCCC2)n[nH]1 | -8.19 | -6.65 | -3.01 | -10.8 | 5.85
CCC(C)NC(=O)c1ccc2c(=O)n(C3CC3)c3nn(CC(=O)Nc4ccccc4)c(=O)n3c2c1 (stereo not given) | 4.31 | 0 | 10.9 | -2.3 | 5.03
CCN1CCN(CCNC(=O)c2cc3n(n2)CC(C)(C(=O)NCCC(C)C)N(C)C3=O)CC1 (stereo not given) | -0.216 | 5.44 | -6.92 | 2.23 | -1.74
COc1cc(OC)cc(-c2cc3cnc(N)nc3nc2NC(=O)NC(C)(C)C)c1 | -4.71 | 5.35 | 0.076 | -8.76 | 2.91
Cc1ccc(C2c3cccn3-c3sc4c(c3CN2C(=O)NCc2ccccc2)CCCC4)cc1 (stereo not given) | -7.4 | 1.34 | 5.53 | 0.2 | 1.27
C[C@]12CC[C@@H]3c4ccc(O)cc4C[C@@H](CCCCCCCCCS(=O)CCCC(F)(F)C(F)(F)F)[C@H]3[C@@H]1CC[C@@H]2O (stereo not given in full) | -14 | 12.2 | 1.61 | -9.65 | 5.28
CCCn1c(=O)c2cc(Cl)ccc2n2c(SCC(=O)Nc3ccc(C)cc3)nnc12 | -4.92 | -10.3 | 6.59 | -7 | -2.55
CCC(C)NC(=O)Cn1nc2n(Cc3ccccc3)c(=O)c3ccc(C(=O)NCC(C)C)cc3n2c1=O (stereo not given) | 4.57 | 1.16 | 10.2 | 2.05 | 2.61
Cc1cnc(CC2CCN(S(=O)(=O)c3cn(C)cn3)C2)n1Cc1ccccc1 (stereo not given) | -0.356 | 0.606 | -5.35 | -5.86 | -1.68
Nc1ncnc2c1c(-c1cnc3[nH]ccc3c1)nn2C1CCCC1 | -3.91 | -17 | -5.04 | -77.2 | -88.6
Cc1ccc(Cn2c(=O)c3ccccc3n3c(SCC(=O)Nc4cccc(F)c4)nnc23)cc1 | -0.248 | 0 | 9.16 | 2.05 | 4.81
Cc1ccccc1N1C(=O)c2cc3occc3n2CC1(C)C(=O)NC1CCCCC1 (stereo not given) | -0.538 | 1.89 | 0.93 | 3.98 | -2.04
NC(=O)COc1cccc(CN2CCN(c3ccc(F)cc3F)CC2)c1 | -2.77 | 1.65 | -0.941 | -2.19 | -5.2
Cc1[nH]c2ccccc2c1C(=O)Cn1nc2n(Cc3ccccc3)c(=O)c3ccccc3n2c1=O | 1.87 | 4.65 | 6.46 | -0.95 | 1.23
COc1cccc(C(=O)N2CCN(C(=O)COc3cccc(C)c3)CC2)c1OC | -5.76 | -14.7 | -5.25 | -22.4 | -19.6

Structure (SMILES) | activity change, negative = inhibition [1] [%] | activity change, negative = inhibition [2] [%] | activity change, negative = inhibition [3] [%] | activity change, negative = inhibition [4] [%] | activity change, negative = inhibition [5] [%]
Cc1ccc2c(cnn2C(=O)CCCC(=O)N2CCN(c3ccccc3)CC2)c1 | 0.602 | 1.38 | 4.93 | 2.74 | 2.43
CCOCCCN1C(=O)c2c(NC(C)=O)c3cc(F)ccc3n2CC1(C)C(=O)NCCC(C)C (stereo not given) | 3.6 | 0.331 | 8.94 | 5.93 | 5.09
C/C=C/c1ccc2c(c1)[C@@H](C)[C@H](c1ccc(O)cc1)O2 | 0 | 5.83 | 3.55 | -66 | 4.17
C/C=C(/COC(=O)/C(C)=C/C)C(=O)OC(CC)c1ccc(OC)c(OC)c1 (stereo not given) | -8.49 | 5.45 | 7.74 | -12.7 | -0.126
CC(=O)N1CCC([C@@H]2CN(Cc3ccc(C)s3)C[C@H]2CO)CC1 | -1.36 | -2.85 | -3.24 | -4.3 | 0.366
Cc1cccc(NC(=O)Cn2nc3n(C)c(=O)c4ccc(C(=O)NC5CCCCC5)cc4n3c2=O)c1 | 2.86 | 2.22 | 6.46 | -1.54 | 1.42
CCOC(=O)c1ccc2c(c1)[C@@H]1C=CC[C@@H]1[C@H](c1ccc(C(=O)OC)cc1)N2 | -10.9 | -7.57 | -8.34 | -22.5 | -9.57
COc1cccc(C2c3cccn3-c3sc4c(c3CN2C(=O)Nc2cc(F)ccc2F)CCCC4)c1 (stereo not given) | 1.52 | 0 | -3.07 | -1.73 | 4.46
C=Cc1cc2oc(-c3ccc(O)c(F)c3)nc2cc1O | -73.9 | -36 | -73 | -44 | -52.8
NS(=O)(=O)c1ccc(Nc2nc(OCC3CCCCC3)c3[nH]cnc3n2)cc1 | -28.3 | 3.72 | -44.2 | -87.2 | -11.9
CC(C)Cn1c(=O)c2ccc(C(=O)NC3CCCC3)cc2n2c(=O)[nH]nc12 | -14.5 | 4.48 | -6.49 | -8.55 | -12.7
COc1ccc(-c2cc3n(n2)CC(C)(C(=O)NCc2ccccc2OC)N(c2ccc(C)c(C)c2)C3=O)cc1 (stereo not given) | 6.54 | 3.72 | 6.37 | 3.79 | -1.14
Cc1cnc(CN2CC3(CCCN(C(=O)c4ccc(C)s4)C3)CCC2=O)cn1 (stereo not given) | -5.63 | -6.17 | -3 | -13.1 | -17
CN1C(=O)CCCCC1C(=O)NCC1CCCCC1 (stereo not given) | -0.118 | -1.07 | 2.9 | 0.268 | 1.24
COc1ccc(-c2nc(C)nc3c2CCC3)c2ccc(C)nc12 | -4.03 | 0.307 | 2.56 | -1.54 | 13.3
COCCNC(=O)C1CCC(=O)N1C1CCNCC1 (stereo not given) | -0.088 | 1.51 | 3.09 | -4.25 | 11.5
CCc1ccccc1NC(=O)N1CCn2c(C)ccc2C1CC (stereo not given) | -1.07 | 0 | -5.51 | -6.63 | -2.75
O=C(CCc1nnc2n(Cc3ccccc3Cl)c(=O)c3ccccc3n12)NC1CCCCC1 | 1.15 | 4.42 | 8.03 | 6.77 | 0.27
